# Counter-ions that a name gives are not always drawn. ± gives the standard deviation of the averaged measurements. Whole data set: some 2,000 compounds, median “cell viability relative to DMSO control (compound alone)” near 0.98, cut for the lowest 2% near 0.23. The list shows a part of the results.
# System: PDC-DUC18828
# Assay: cell viability relative to DMSO control (compound alone) (fraction); PDC-DUC18828 is a patient-derived cholangiocarcinoma cell line; higher = less growth inhibition
# Settings: 1 µM; 72 h
# Procedure: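 Selleck Bioactive library screen in the patient-derived FGFR2-G3BP2 fusion-positive ICC cell line PDC-DUC18828 (500 cells/well). Each compound was tested at 1 uM alone, in triplicate, for 72 h. Viability was read by CellTiter-Glo and normalised to plate DMSO controls.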
row,Compound,cell viability
1,Cc1nc(N)sc1-c1ccnc(Nc2ccc(N3CCOCC3)cc2)n1,0.798 ± 0.081
2,C[C@]12CC[C@@H]3c4ccc(O)cc4CC[C@H]3[C@@H]1C[C@@H](O)[C@@H]2O [Estriol],0.905 ± 0.014
3,C[C@@H]1CN(CC(=O)Nc2ccc3c(c2)Cc2cccc(-c4cc(=O)cc(N5CCOCC5)o4)c2S3)C[C@H](C)O1,0.95 ± 0.05
4,CCC[C@H](NC(=O)[C@@H]1[C@H]2CCC[C@H]2CN1C(=O)[C@@H](NC(=O)[C@@H](NC(=O)c1cnccn1)C1CCCCC1)C(C)(C)C)C(=O)C(=O)NC1CC1 [Telaprevir (VX-950)],1.06 ± 0.032
5,CCc1cccc2c3c([nH]c12)C(CC)(CC(=O)O)OCC3 (stereo not drawn) [Etodolac],0.961 ± 0.044
6,Cc1noc(NS(=O)(=O)c2ccc(N)cc2)c1C [Sulfisoxazole],0.986 ± 0.028
7,CCOC(=O)[C@H](CCc1ccccc1)N[C@@H](C)C(=O)N1CCC[C@H]1C(=O)O [Enalapril Maleate],1.04 ± 0.031
8,CNC(=O)[C@H](Cc1ccccc1)NC(=O)[C@H](CC(C)C)[C@H](CSc1cccs1)C(=O)NO [Batimastat (BB-94)],0.998 ± 0.028
9,CC[C@@H]1/C=C(\C)C[C@H](C)C[C@H](OC)[C@H]2O[C@@](O)(C(=O)C(=O)N3CCCC[C@H]3C(=O)O[C@H](/C(C)=C/[C@@H]3CC[C@H](Cl)[C@H](OC)C3)[C@H](C)[C@@H](O)CC1=O)[C@H](C)C[C@@H]2OC [Pimecrolimus],1.03 ± 0.04
10,Cc1cc(Nc2nc(N[C@@H](C)c3ncc(F)cn3)ncc2Cl)[nH]n1,0.577 ± 0.047
11,COC[C@H](NC(=O)c1cnc(C)s1)C(=O)N[C@@H](COC)C(=O)N[C@@H](Cc1ccccc1)C(=O)[C@@]1(C)CO1 [Oprozomib (ONX 0912)],0.0181 ± 0.0015
12,CCCCC(=O)N(Cc1ccc(-c2ccccc2-c2nnn[nH]2)cc1)[C@H](C(=O)O)C(C)C.CCOC(=O)[C@H](C)C[C@@H](Cc1ccc(-c2ccccc2)cc1)NC(=O)CCC(=O)O,0.926 ± 0.025
13,OC[C@H]1O[C@@H](O[C@@H]2[C@@H](CO)OC(O)(CO)[C@H]2O)[C@H](O)[C@@H](O)[C@H]1O (mixture of isomers) [Lactulose],1.02 ± 0.042
14,O=C(O)CC1CC(c2ccccc2)=NO1 (stereo not drawn),0.981 ± 0.086
15,CN(C)[C@@H]1C(O)=C(C(N)=O)C(=O)[C@@]2(O)C(O)=C3C(=O)c4c(O)ccc(Cl)c4[C@@H](O)[C@H]3C[C@@H]12 [Demeclocycline HCl],1.01 ± 0.041
16,CCN(c1cc(-c2ccc(CN3CCOCC3)cc2)cc(C(=O)NCc2c(C)cc(C)[nH]c2=O)c1C)C1CCOCC1,0.901 ± 0.049
17,Cn1c([N+](=O)[O-])cnc1COC(N)=O [Ronidazole],1.012 ± 0.0073
18,CN(CCOc1ccc(CC2SC(=O)NC2=O)cc1)c1ccccn1 (stereo not drawn) [Rosiglitazone maleate],1.046 ± 0.0083
19,CN(CCOc1ccc(CC2SC(=O)NC2=O)cc1)c1ccccn1 (stereo not drawn) [Rosiglitazone],0.977 ± 0.011
20,CN(CCOc1ccc(CC2SC(=O)NC2=O)cc1)c1ccccn1 (stereo not drawn) [Rosiglitazone HCl],1.05 ± 0.073
21,COc1ccc(C[C@@H]2c3cc(OC)c(OC)cc3CC[N@+]2(C)CCC(=O)OCCCCCOC(=O)CC[N@@+]2(C)CCc3cc(OC)c(OC)cc3[C@H]2Cc2ccc(OC)c(OC)c2)cc1OC [Cisatracurium Besylate],1.07 ± 0.028
22,CCOC(=O)c1c(C)n(C)c2ccc(O)cc12 [Mecarbinate],1.06 ± 0.053
23,Fc1cc(-c2cccc3ncc(-c4cnn(C5CCNCC5)c4)nc23)cc(F)c1CN1CCOCC1,1.01 ± 0.041
24,CC(N)C12CC3CC(CC(C3)C1)C2 (stereo not drawn) [Rimantadine],0.987 ± 0.051
25,C[C@H](Oc1cc(-c2cnn(C3CCNCC3)c2)cnc1N)c1c(Cl)ccc(F)c1Cl [(S)-crizotinib],0.899 ± 0.019

row,Compound,cell viability
1,Brc1c(NC2=NCCN2)ccc2nccnc12 [Brimonidine Tartrate],0.957 ± 0.041
2,CN(C)CCOC(=O)COc1ccc(Cl)cc1 [Meclofenoxate (Centrophenoxine) HCl],0.992 ± 0.067
3,NCc1c[nH]c(=S)n1[C@@H]1CCc2c(F)cc(F)cc2C1 [(R)-Nepicastat HCl],0.9045 ± 0.0088
4,Cc1ccc2c(Cl)cc(Cl)c(O)c2n1 [Chlorquinaldol],0.943 ± 0.057
5,N=C(N)N/N=C/c1c(Cl)cccc1Cl [Guanabenz Acetate],1.07 ± 0.041
6,CCNC(=O)C#Cc1ccc2c(C(=Nc3ccc(CN(C)C)cc3)c3ccccc3)c(O)[nH]c2c1,0.403 ± 0.024
7,CCCCOc1cc(C(=O)NCCN(CC)CC)c2ccccc2n1 [Dibucaine HCl],1.02 ± 0.024
8,CCOC(=O)c1ccc(NC(=O)O[C@H]2[C@H](OC(=O)Nc3ccc4c(c3)OCO4)[C@@H](OC(=O)Nc3ccc4c(c3)OCO4)[C@@H](OC)O[C@@H]2CO)cc1,0.935 ± 0.083
9,O=C1CCc2cc(OCCCCc3nnnn3C3CCCCC3)ccc2N1 [Cilostazol],1.05 ± 0.039
10,N#C[C@@H]1C[C@@H]2C[C@@H]2N1C(=O)[C@@H](N)C12CC3CC(CC(O)(C3)C1)C2 [Saxagliptin],1.02 ± 0.034
11,CCS(=O)(=O)CCn1c([N+](=O)[O-])cnc1C [Tinidazole],1.08 ± 0.053
12,COc1cc(Nc2nc3ccccc3nc2NS(=O)(=O)c2ccc(NC(=O)c3ccc(C)c(OC)c3)cc2)cc(OC)c1,0.925 ± 0.076
13,CCC1=C(C)CN(C(=O)NCCc2ccc(S(=O)(=O)NC(=O)N[C@H]3CC[C@H](C)CC3)cc2)C1=O [Glimepiride],1.07 ± 0.022
14,Cc1cc(C(O)=C2C(=O)C(=O)N(CCCN3CCOCC3)C2c2ccncc2)ccc1OCc1ccccc1 (stereo not drawn),1.05 ± 0.054
15,Nc1ncnc2c1c(-c1cnc3[nH]ccc3c1)nn2C1CCCC1,0.363 ± 0.017
16,CC(C)NCC(O)COc1cccc2ccccc12 (stereo not drawn) [Propranolol HCl],1.07 ± 0.016
17,Cc1nc(NC(=O)N2CCC[C@H]2C(N)=O)sc1-c1ccnc(C(C)(C)C(F)(F)F)c1,0.967 ± 0.045
18,O=C(/C=C\n1cnc(-c2cc(C(F)(F)F)cc(C(F)(F)F)c2)n1)NNc1cnccn1,0.508 ± 0.021
19,CN(C)Cc1ccc(-c2nc3cccc4c3n2CCNC4=O)cc1,1.05 ± 0.046
20,Cc1[nH]c(/C=C2\C(=O)Nc3ccc(S(=O)(=O)N(C)c4cccc(Cl)c4)cc32)c(C)c1C(=O)N1CCN(C)CC1,0.964 ± 0.1
21,CCC1C/C(=C\c2cccnc2)C(=O)/C(=C/c2cccnc2)C1 (stereo not drawn),0.594 ± 0.048
22,CC(C)C[C@H](NC(=O)[C@H]1O[C@@H]1C(=O)O)C(=O)NCCCCN=C(N)N,1.01 ± 0.047
23,Oc1c2ccccc2c2c3c(cccc13)N=N2,0.992 ± 0.013
24,COC(=O)[C@@H]1[C@H]2C[C@H]3c4[nH]c5ccccc5c4CCN3C[C@@H]2CC[C@@H]1O [Yohimbine HCl],1.01 ± 0.021
25,C[C@@H]1O[C@@H](O[C@H]2[C@H](Oc3cc(O)c(C(=O)CCc4ccc(O)cc4)c(O)c3)O[C@H](CO)[C@@H](O)[C@@H]2O)[C@H](O)[C@H](O)[C@H]1O [Naringin Dihydrochalcone],0.8827 ± 0.0073

row,Compound,cell viability
1,CCCCNC(=O)NS(=O)(=O)c1ccc(C)cc1 [Tolbutamide],0.9 ± 0.014
2,"CCCS(=O)(=O)Nc1ccc(F)c(C(=O)c2c[nH]c3ncc(-c4ccc(Cl)cc4)cc23)c1F [Vemurafenib (PLX4032, RG7204)]",0.989 ± 0.067
3,O=C(Nc1c(Cl)cncc1Cl)c1ccc(OC(F)F)c(OCC2CC2)c1 [Roflumilast],0.922 ± 0.026
4,CCOC(=O)OC(C)OC1=C(C(=O)Nc2ccccn2)N(C)S(=O)(=O)c2ccccc21 (stereo not drawn) [Ampiroxicam],0.984 ± 0.015
5,Cc1cccc(-c2[nH]c(CNc3ccccc3F)nc2-c2ccc3ncnn3c2)n1,0.9 ± 0.075
6,O=S(=O)(O)CCS [Mesna],0.989 ± 0.038
7,Cn1nccc1Nc1nccc(-c2ccn([C@H](CO)c3ccc(Cl)c(F)c3)c(=O)c2)n1,1 ± 0.028
8,OCc1cc(C(O)CNCCCCCCOCCCCc2ccccc2)ccc1O (stereo not drawn) [Salmeterol Xinafoate],0.925 ± 0.061
9,CC(=O)OCC(=O)[C@@]12N=C(C)O[C@@H]1C[C@H]1[C@@H]3CCC4=CC(=O)C=C[C@]4(C)[C@H]3[C@@H](O)C[C@@]12C [Deflazacort],0.913 ± 0.064
10,"C[C@@H](CN1CC(=O)NC(=O)C1)N1CC(=O)NC(=O)C1 [Dexrazoxane HCl (ICRF-187, ADR-529)]",1.05 ± 0.028
11,Cc1nc2n(c(=O)c1CCN1CCC(c3noc4cc(F)ccc34)CC1)CCCC2 [Risperidone],1.09 ± 0.062
12,CNCCC(Oc1ccc(C(F)(F)F)cc1)c1ccccc1 (stereo not drawn) [Fluoxetine HCl],0.992 ± 0.013
13,CCC(=O)O[C@]1(C(=O)CCl)[C@@H](C)C[C@H]2[C@@H]3C[C@H](F)C4=CC(=O)C=C[C@]4(C)[C@@]3(F)[C@@H](O)C[C@@]21C [Halobetasol Propionate],0.927 ± 0.031
14,CN(C)Cc1cccc(N/C(=C2\C(=O)Nc3cc(C(N)=O)ccc32)c2ccccc2)c1,0.993 ± 0.045
15,CCN1CC(CCN2CCOCC2)C(c2ccccc2)(c2ccccc2)C1=O (stereo not drawn) [Doxapram HCl],0.928 ± 0.019
16,CCC(CC)CC1(C(=O)Nc2ccccc2SC(=O)C(C)C)CCCCC1,1.08 ± 0.097
17,Cn1cc(-c2ccc3nnc(C(F)(F)c4ccc5ncccc5c4)n3n2)cn1,0.994 ± 0.033
18,c1ccc2[nH]c(-c3cscn3)nc2c1 [Thiabendazole],1.03 ± 0.021
19,CNC(=O)Nc1ccc(-c2nc(N3CC4CCC(C3)O4)c3cnn(C4CCC5(CC4)OCCO5)c3n2)cc1,0.256 ± 0.018
20,CN1CC2c3ccccc3Oc3ccc(Cl)cc3C2C1 (stereo not drawn) [Asenapine],0.9867 ± 0.0088
21,CCCCNc1ncc2c(-c3ccc(CN4CCN(C)CC4)cc3)cn([C@H]3CC[C@H](O)CC3)c2n1,0.586 ± 0.006
22,COC1=C2C[C@@H](C)C[C@H](OC)[C@H](O)[C@@H](C)/C=C(\C)[C@H](OC(N)=O)[C@@H](OC)/C=C\C=C(/C)C(=O)NC(=CC1=O)C2=O [Geldanamycin],0.304 ± 0.003
23,COc1ccc(-c2cc(=O)c3c(O)cc(O[C@@H]4O[C@H](CO[C@@H]5O[C@@H](C)[C@H](O)[C@@H](O)[C@H]5O)[C@@H](O)[C@H](O)[C@H]4O)cc3o2)cc1O [Diosmin],0.926 ± 0.082

# Reference: the supplement of paper PMC9588766
